# Laboratory results: PubChem BioAssay AID493208 (National Center for Advancing Translational Sciences (NCATS), 2011)
# Screen size: about 44,000 compounds; about 340 (0.77%) were called active. Roughly 5% stayed inconclusive and do not appear here. Calls follow the shape of the dose curve; as a rule, active = well fitted inhibition curve with a large enough effect; inconclusive = small, poorly fitted or top-dose-only effect; inactive = flat fitted curve, though single readings scatter. The list shows a part of the results.
# Experiment: Acumen qHTS Assay for Inhibitors of the mTORC1 Signaling Pathway in MEF (Tsc2-/-, p53-/-) Cells: Sytravon; also: nearly all actives have a fitted effect of over 50% in size;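 as to activity change, negative = inhibition: plate controls were DMSO for no effect and rapamycin for full effect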
# Details: phospho-rpS6 immunofluorescence/PI, 24 h; series mostly up to 38.3 µM; activity change, negative = inhibition: at the top concentration
# Outline: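 Compounds act on Tsc2-/-, p53-/- fibroblasts carrying an empty vector for 24 h before fixation and dual staining for phospho-S6 and DNA (propidium iodide). Values are percentages of cells above a rapamycin-defined pS6/PI threshold.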
# Potency is read from the fitted curve at half-maximal effect.
SMILES,"activity change, negative = inhibition",Potency
CC1=C(C(=O)OC2CCCC2)C(c2cccc(Cl)c2Cl)CC(=O)N1 (stereo not drawn),inactive: -22.3%,–
COc1ccccc1N1CCN(C(=O)c2cc3c(=O)n(Cc4cccnc4)ccc3nc2C)CC1,inactive: -0.355%,–
O=C(Cn1c(=O)n(-c2ccccc2)c(=O)c2c3c(sc21)CCCC3)Nc1ccc(F)cc1,inactive: -2.14%,–
Cc1ccccc1OCC(=O)Nc1nnc(S(=O)(=O)N(C)c2ccccc2)s1,inactive: 5.68%,–
CCC1Oc2ccccc2N(CC(=O)NCc2ccc(C)cc2)C1=O (stereo not drawn),inactive: 15.8%,–
CCN1CCN(c2ncc3c(n2)CCN(Cc2ccc(C)s2)C3)CC1,inactive: 1.65%,–
COc1ccc(Br)cc1CNC(=O)c1cc2c(=O)n(C)c3ccccc3c2s1,inactive: -0.876%,–
Cc1cccc(CCNC(=O)c2nc(-c3ccc(Cl)cc3)n3c2CCCCC3)c1,inactive: -0.0798%,–
CC(=O)c1ccc(NC(=O)COc2ccccc2-c2nc(C)no2)cc1,inactive: -9.71%,–
CCn1c2c(c(=O)n3ncc(C(=O)Nc4ccc(F)c(Cl)c4)c13)CN(Cc1ccc(OC)cc1)CC2,inactive: 6.61%,–
CCOc1ccc(C(=O)OCc2cc(=O)n3nc(C(C)C)sc3n2)cc1,inactive: -0.856%,–
CC(C)CC(=O)N(Cc1ccccc1)S(=O)(=O)c1ccc2c(c1)oc(=O)n2C,inactive: 1.32%,–
Nc1nonc1-c1nc2ccccc2n1CC(=O)Nc1ccc(F)cc1,inactive: -25.3%,–
CC(=O)c1cc(-c2ccccc2)n(CC(=O)Nc2ccc(C)cc2C)c1C,inactive: -0.281%,–
Cc1ccc(S(=O)(=O)c2cn(CC(=O)Nc3ccccc3)c3cc4c(cc3c2=O)OCO4)cc1,inactive: 1.12%,–
Cc1ccc(-c2nc(CS(=O)CC(=O)O)c(C)o2)cc1 (stereo not drawn),inactive: 3.04%,–
CCOc1ccccc1NC(=O)NC(CC)c1c(-n2cccc2)sc2c1CCN(C)C2 (stereo not drawn),inactive: 9.05%,–
CCc1ccc(Nc2nc3ccccc3c3nnc(C)n23)cc1,inactive: 0.177%,–
Cc1cccc(N2CCN(C(=O)c3ccc4c(c3)CCN4S(=O)(=O)c3ccccc3)CC2)c1C,inactive: -12.5%,–
CCc1ccccc1NC(=O)CSc1nccn1C,inactive: 6.01%,–
CCOC(=O)c1cc(OC(=O)c2cc(Cl)ccc2OC)n(-c2ccccc2)n1,inactive: 1.98%,–
CCc1ccc(S(=O)(=O)c2nnn3c2nc(NCCC(C)C)c2cc(Cl)ccc23)cc1,inactive: -1.36%,–
CC(=O)c1ccc(OC(=O)c2c(-c3ccccc3Cl)noc2C)cc1,inactive: 7.54%,–
COc1ccc2c(c1)c(CC(=O)Nc1cc(C)c(OC)c(C)c1)c(C)n2C(=O)c1ccc(Cl)cc1,inactive: -2.68%,–
CCCN(CCC)S(=O)(=O)c1ccc(C(=O)N2CCn3c4c(c5cc(C)ccc53)CCCC42)cc1 (stereo not drawn),inactive: 4.36%,–

SMILES,"activity change, negative = inhibition",Potency
O=C(COc1ccc(Cl)cc1Cl)Nc1ccc(C(=O)OC2CCCCC2)cc1,inactive: 1.38%,–
Cn1nc(C(=O)Nc2cccc(C(F)(F)F)c2)c2c1-c1ccccc1S(=O)(=O)C2,inactive: -0.644%,–
CCOc1ccc(NS(=O)(=O)c2ccc3[nH]cc(C(=O)NCCc4ccccc4)c(=O)c3c2)cc1,inactive: -2.15%,–
COc1ccccc1Nc1ncnc2c1nc1n2CCCCC1,inactive: -9.88%,–
Cn1c(SCC(=O)Nc2ccccc2F)nc2c([nH]c3ccccc32)c1=O,inactive: -11.9%,–
CCC(=O)N1c2ccccc2CC1C(=O)NCCN1CCN(c2ccccc2F)CC1 (stereo not drawn),inactive: 7.92%,–
Cc1ccc(NC(=O)CSc2nc(=O)n(CCN3CCOCC3)c3c2CCC3)cc1Cl,inactive: 2.03%,–
Cc1ccc(Nc2c(-c3cccc(Cl)c3)nc3cccc(C)n23)cc1,inactive: 1.47%,–
CC(C)(C)OC(=O)N1CCC(c2c(C(=O)NCc3ccccn3)cnn2-c2ccccc2Cl)CC1,inactive: 3.74%,–
Cc1ccc(C)c(N2CCN(S(=O)(=O)c3ccc(C4CCCCC4)cc3)CC2)c1,inactive: 14.6%,–
CCCc1noc(-c2ccc(NCc3ccccc3OC)c([N+](=O)[O-])c2)n1,inactive: 1.2%,–
Cn1c(=O)nc2n(-c3ccc(Br)cc3)c3cccc(Cl)c3cc-2c1=O,inactive: -7.2%,–
CCOc1ccccc1NC(=O)CSc1nc(-c2cccs2)cc(C(F)(F)F)n1,inactive: 0.0661%,–
CC(C)c1ccc(NC(=O)CSC2=Nc3ccccc3C3=NC(CC(=O)NCCc4ccccc4)C(=O)N23)cc1 (stereo not drawn),inactive: -7.05%,–
Cc1[nH]c2ccccc2c1SCCNC(=O)c1ccc(F)cc1,inactive: 10.1%,–
Cc1cc(-c2ccc(C)c(S(=O)(=O)NCCc3ccccc3)c2)on1,inactive: 12.7%,–
O=C(Nc1cc(-c2nc3ccccc3o2)ccc1Cl)c1cc([N+](=O)[O-])ccc1N1CCOCC1,inactive: -3.63%,–
Cn1cc(-c2cc3n(n2)CCC(=O)N3CC(=O)NCc2ccccc2)c2ccccc21,inactive: -3.57%,–
Cc1cccc(Cn2c(SCc3ccc(C(=O)NCc4cccs4)cc3)nc3ccncc32)c1,inactive: 2.85%,–
Cc1ccccc1C(=O)Nc1ccc2nc(SCC(=O)N(C)c3ccccc3)sc2c1,inactive: 0%,–
CN(C)C1(CNC(=O)COc2cccc(Cl)c2)CCCCC1,inactive: -1.12%,–
O=c1cc(N2CCN(c3ccc(F)cc3)CC2)[nH]c(=O)n1-c1cccc(Br)c1,inactive: 0.128%,–
Cc1cccc(C(=O)NCc2cn3cccc(C)c3n2)c1,inactive: -6.8%,–
CC(C)c1ccc(Cc2cnc(NC(=O)c3ccc4c(c3)CC(c3ccccc3)OC4=O)s2)cc1 (stereo not drawn),inactive: 2.25%,–
Cc1ccc(-n2c(=O)c3cccnc3n2CC(=O)Nc2ccccc2C(F)(F)F)cc1C,inactive: 3.08%,–

SMILES,"activity change, negative = inhibition",Potency
COc1cccc(CNC(=O)C2CCCN(S(=O)(=O)c3cn(C)cn3)C2)c1 (stereo not drawn),inactive: 1.58%,–
COc1ccc(-c2cn3c(n2)sc2cc(C(=O)NC4CCCCC4)ccc23)cc1,inactive: 5.3%,–
COc1ccc(S(=O)(=O)N(C(=O)c2ccncc2)c2ccc3oc(C)c(C(C)=O)c3c2)cc1,–,active: 18.5 µM
CC[C@H](C)NC(=O)CCCc1nnc2n(CCC(C)C)c(=O)c3sccc3n12,inactive: -3.18%,–
Cc1ccc(C)c(NC(=O)C(NS(=O)(=O)c2ccc3c(c2)CCC(=O)N3)c2ccccc2)c1 (stereo not drawn),inactive: -7.18%,–
COc1ccccc1OC(C)C(=O)N1CCN(CCc2ccccn2)CC1 (stereo not drawn),inactive: -1.25%,–
CCOC(=O)C1CCCN(C(=O)Cn2nc(C)n3c(cc4c(OC)cccc43)c2=O)C1 (stereo not drawn),inactive: 1.48%,–
O=c1c2ccccc2nc2sc(Nc3cccc(C(F)(F)F)c3)nn12,inactive: -0.237%,–
CCN(CC)c1ccc(C2C(C(N)=O)=C(C)Nc3nc(SCc4ccccc4)nn32)cc1 (stereo not drawn),inactive: 7.67%,–
CSc1cccc(NS(=O)(=O)c2ccc3[nH]cc(C(=O)N4CCCCCC4)c(=O)c3c2)c1,inactive: -8.89%,–
Cc1cccc(Cc2c(C)nc3nc(SCC(=O)NC4CCCCC4)nn3c2C)c1,inactive: -4.59%,–
Fc1ccc(-c2noc3ncnc(NCc4cccc(Cl)c4)c23)cc1,inactive: -4.55%,–
CCOC(=O)c1nnc2c(-c3ccc(F)cc3)c(C)nn2c1N,inactive: -0.698%,–
COc1ccccc1CNC(=O)c1cnn(-c2ccc(F)cc2F)c1C1CCN(C(=O)OC(C)(C)C)CC1,inactive: 2.87%,–
Cc1ccc(N2CC(NC(=O)Cc3ccc(F)cc3)CC2=O)cc1C (stereo not drawn),inactive: -0.0709%,–
COc1ccc(-c2noc(CCC(=O)Nc3ccccc3Cl)n2)cc1OC,inactive: -3.02%,–
COCCN1CN=C(NS(=O)(=O)c2ccc(C)cc2)NC1,inactive: -0.546%,–
COc1ccc(/C=C(\C#N)c2nc(-c3cc4ccccc4oc3=O)cs2)cc1OC,inactive: -13.1%,–
CC1CCN(S(=O)(=O)c2ccc3nc(N4CCN(c5ccccc5F)CC4)ccc3c2)CC1,inactive: 9.8%,–
COC(=O)c1cccnc1-n1c(=O)c2cccnc2n(CC(=O)Nc2cccc(C(F)(F)F)c2)c1=O,inactive: 2.99%,–
CCOc1cc(C2CC(=O)Nc3c2c(C)nn3-c2nc(C)cc(C)n2)ccc1O (stereo not drawn),inactive: -11.8%,–
COc1ccccc1N1CCN(C(=O)c2oc3ccccc3c2N)CC1,inactive: 2.32%,–
Cc1ccc(-c2onc(C)c2C)cc1S(=O)(=O)NC1CCC(C)CC1 (stereo not drawn),inactive: -24.1%,–
COc1cc(C)ccc1OCCSc1nnc(-c2cccs2)o1,inactive: -7.87%,–
O=C(/C=C/c1ccccc1)Nc1cc(-c2nc3ccccc3o2)ccc1Cl,inactive: 6.81%,–

SMILES,"activity change, negative = inhibition",Potency
FC(F)(F)c1cccc(N2CCN(Cc3nnc(-c4ccccc4)o3)CC2)c1,inactive: 3.23%,–
CCOc1ccccc1CNC(=O)c1ccc(Cn2c(=O)c3cccn3c3cccnc32)cc1,inactive: 5.08%,–
CC(C)c1ccc(-c2noc(SCC(=O)N3CCCCC3)n2)cc1,inactive: 3.16%,–
CCCN(CCC)CCCNC(=O)c1nn(C)c2c1CS(=O)(=O)c1ccccc1-2,inactive: -2.54%,–
CC(=O)Nc1nonc1-c1nnc(SCc2cccc(Br)c2)n1C,inactive: -0.342%,–
CCOc1cccc2sc(NC(=O)c3ccc(S(=O)(=O)N4CCc5ccccc54)cc3)nc12,inactive: 1.37%,–
CCc1cccc(C)c1NC(=O)C(CC)Sc1nc2ccncc2[nH]1 (stereo not drawn),inactive: -5.64%,–
CCCCc1nn2c(=O)cc(COC(=O)c3ccc(NC(=O)c4cccc(OC)c4)cc3)nc2s1,inactive: 6.89%,–
CCCN1CCN(CC2=C(C(=O)OCC)C(c3cccc(OC)c3OC)NC(=O)N2)CC1 (stereo not drawn),inactive: 2.8%,–
COc1ccc(CN2CCN(c3ncnc4sc5c(c34)CCCC5)CC2)cc1F,inactive: -5.84%,–
Cc1ccc(NC(=O)N2CCc3c(sc4c3CCCC4)C2c2ccccc2)cc1F (stereo not drawn),inactive: 11.7%,–
CSc1ncc(C(=O)NCc2ccccc2Cl)c(C(F)(F)F)n1,inactive: -9.63%,–
CCOC(=O)CSc1nc2cc3c(cc2c(=O)n1CCCCCC(=O)NCc1ccc2c(c1)OCO2)OCO3,inactive: -13%,–
CCCCN(C)C(=O)c1ccc2c(c1)N(Cc1cccc(Cl)c1)C(=O)c1ccccc1S2=O (stereo not drawn),inactive: -2.15%,–
Cc1cc(C)cc(NC(=O)N2CCN(C)c3ncccc32)c1,inactive: -11.5%,–
Cc1ccc2c(CC(=O)Nc3ccc(S(=O)(=O)Nc4nc(C)cc(C)n4)cc3)coc2c1,inactive: -3.09%,–
CCOc1ccc(CNC(=O)CN2C(=O)CSc3ccc(S(=O)(=O)N4CCOCC4)cc32)cc1OC,inactive: 6.5%,–
Cn1c(=O)cc(OCC(=O)N2CCN(c3ccccc3F)CC2)c2ccccc21,inactive: -2.1%,–
O=C(CCCCn1c(=O)c2ccccc2n(Cc2ccccc2F)c1=O)NCc1ccc2c(c1)OCO2,inactive: -3.24%,–
O=C(NCc1ccc(Cl)cc1)C1(c2cccs2)CCOCC1,inactive: -6.5%,–
COc1ccc(-c2noc(-c3cc(C(C)C)[nH]n3)n2)cc1,inactive: -15.9%,–
Cc1ccc(OCCSc2nc3ccccc3n2CC(=O)N2CCCCC2)cc1C,inactive: -7.26%,–
COC(=O)c1ccccc1NC(=O)CCn1nc(C)c2c(C)n(-c3ccccc3)nc2c1=O,inactive: 1.51%,–
